Enrichment ratio data for 84 variants are collected here from a collection of fitness landscapes (doi:10.1126/science.1257360).

This is one part of the list.

The labels stand for the following.
B1: PhoQ; a variant is named by its letters at X, in order, P23837 (parent)
chain: MKKLLRLFFPLSLRVRFLLATAAVVLVLSLAYGMVALIGYSVSFDKTTFRLLRGESNLFYTLAKWENNKLHVELPENIDKQSPTMTLIYDENGQLLWAQRDVPWLMKMIQPDWLKSNGFHEIEADVNDTSLLLSGDHSIQQQLQEVREDDDDAEMTHSVAVNVYPATSRMPKLTIVVVDTIPVELKSSYMVWSWFIYVLSANLLLVIPLLWVAAWWSLRPIEALAKEVRELEEHNRELLNPATTRELTSLVRNLNRLLKSERERYDKYRTTLTDLTHSLKTPLXXLQXXLRSLRSEKMSVSDAEPVMLEQISRISQQIGYYLHRASMRGGTLLSRELHPVAPLLDNLTSALNKVYQRKGVNISLDISPEISFVGEQNDFVEVMGNVLDNACKYCLEFVEISARQTDEHLYIVVEDDGPGIPLSKREVIFDRGQRVDTLRPGQGVGLAVAREITEQYEGKIVAGESMLGGARMEVIFGRQHSAPKDE

Variants of B1 are the subject of this test. Briefly: enrichment ratio after two sorts for PhoP signalling (ratio (wild type AVST 3.29)); higher = more functional. The settings on record: with PhoP (E. coli).
Consider APWW, for which the enrichment ratio is at most 0.25. With FEYI the figure was at most 0.25; with DMEF, at most 0.25. For YPFR, the enrichment ratio was at most 0.25. As to LVNV, the enrichment ratio is at most 0.25. QNDS: the enrichment ratio is at most 0.25.

With QMKF, the enrichment ratio was at most 0.25.

Turning to LNYQ, the enrichment ratio was at most 0.25.

On to QDKE, for which the enrichment ratio is at most 0.25. The value for FISS was at most 0.25. As to ANLR, the enrichment ratio came out at 8.82. Regarding NSCW, the enrichment ratio was at most 0.25. The value for CPDF was at most 0.25; that for EGNC was at most 0.25. Consider ASQV, for which the enrichment ratio worked out at 1.45. With PAQQ the figure was at most 0.25; with SNCM, 11.2; with MSGV, 13.8. With VSEF the figure was at most 0.25.

Regarding RVWC, the enrichment ratio is at most 0.25. The value for AQFT was at most 0.25; that for SWMD was at most 0.25; that for YCND was at most 0.25. On to NTNH, for which the enrichment ratio was at most 0.25. The value for LSEA was at most 0.25. The value for VNQC was at most 0.25; that for FDQK was at most 0.25; that for NMGL was at most 0.25. The value for PWIH was at most 0.25.

Regarding TYDH, the enrichment ratio is at most 0.25.

As to ICVN, the enrichment ratio was at most 0.25. The value for VQTC was at most 0.25; that for HFHT was at most 0.25; that for WAER was at most 0.25. With LDVY the figure was at most 0.25; with HFMW, at most 0.25; with GQTW, at most 0.25. On to TLYT, for which the enrichment ratio is at most 0.25. The value for LFNC was at most 0.25; that for EIYD was at most 0.25; that for HGES was at most 0.25.

SVGV: the enrichment ratio was at most 0.25. As for FFCE, the enrichment ratio is at most 0.25. The value for STGF was 11.4.

With NNKF, the enrichment ratio was at most 0.25. Turning to NPTL, the enrichment ratio is at most 0.25. Regarding FSYP, the enrichment ratio is at most 0.25. Consider EMRM, for which the enrichment ratio is at most 0.25.

For the variant FENR, the enrichment ratio is at most 0.25.

On to FPPA, for which the enrichment ratio is at most 0.25. The value for TQTY was 17.5; that for WSSY was at most 0.25; that for NNIK was at most 0.25. For GGRL, the enrichment ratio was at most 0.25. With MLAS the figure was 1.4; with KCDL, at most 0.25. With YDSG the figure was at most 0.25; with WRVM, at most 0.25; with AHLY, 3.97. With REVF the figure was at most 0.25; with RKNF, at most 0.25; with REYA, at most 0.25.

As to HWNK, the enrichment ratio was at most 0.25.

In the case of PDCN, the enrichment ratio was at most 0.25. The value for TGIA was at most 0.25; that for GWGN was at most 0.25; that for MTKK was at most 0.25. Regarding MAWD, the enrichment ratio was at most 0.25.

As to FGCA, the enrichment ratio was at most 0.25.

As for AGYS, the enrichment ratio is at most 0.25. The value for ARPM was at most 0.25; that for VRAC was at most 0.25; that for TGIQ was at most 0.25. The value for VISM was at most 0.25. The value for EYNC was at most 0.25.

On to MDKG, for which the enrichment ratio was at most 0.25.

For the variant QHQS, the enrichment ratio is at most 0.25.

Take SANA: the enrichment ratio is at most 0.25.

As to RWEP, the enrichment ratio was at most 0.25. With LYYK the figure was at most 0.25; with TKDF, at most 0.25. With QQGD the figure was at most 0.25; with YYEY, at most 0.25. For the variant MKPY, the enrichment ratio was at most 0.25.
